From ChEMBL document CHEMBL5308541, “MAIP: An Open-Source Tool to Enrich High-Throughput Screening Output and Identify Novel, Druglike Molecules with Antimalarial Activity” (ACS Med Chem Lett, 2023)
Hit rate of the full screen: of about 150,000 compounds, about 540 (0.36%) showed an effect of 50% or more. This is one part of the list.

Each compound was assayed on Plasmodium falciparum (assay: Primary screen in NF54 nanoGlo assay, in single point, at 2uM, 72h; a lower Z score goes with more inhibition). Settings: timepoint 72 hour.
Format: functional, Erythrocyte
In the case of `Cc1[nH]nc2ncc(CNC[C@H](O)c3ccc(F)cc3)cc12`, the “% Inhibition” value was -4% and the Z score was 0.67.
In the case of `Cc1[nH]c2ccccc2c1[C@@H](c1ccc(N(C)C)cc1)c1cc(C(C)(C)C)c(O)c(C(C)(C)C)c1`, the “% Inhibition” value was -7% and the Z score was 1.29.
`CC(CN1CCOCC1)Nc1cc(N2CCCC2CO)ncn1` (stereo unspecified) was tested, and the “% Inhibition” value was -13% and the Z score was 2.29.
With `Cc1cc(NC[C@H](O)COc2ccc(F)cc2)nc2ccccc12` the “% Inhibition” value was 68% and the Z score was -11.87.
With `Cc1nc(N)sc1C(=O)N1CC[C@H](O)CC(C)(C)C1` the “% Inhibition” value was 3% and the Z score was -0.66.
With `O=C(c1ccnc(OC2CCCCC2)c1)N1CCC[C@H](CN2CCOCC2)C1` the “% Inhibition” value was -5% and the Z score was 0.72.
For `CN1CCC(N2CCC(NC(=O)c3ccccc3-c3nc(C(C)(C)C)no3)CC2)CC1`, the “% Inhibition” value was -2% and the Z score was 0.34.
For `CCOC(=O)c1[nH]c(C)c(CCC(=O)N2CCC[C@H](C(=O)NCCN3CCN(C)CC3)C2)c1C`, the “% Inhibition” value was -4% and the Z score was 0.75.
With `Nc1ccc2c(NCCC3CCN(CC(F)(F)F)CC3)ncnc2n1` the “% Inhibition” value was -11% and the Z score was 1.94.
In the case of `O=c1ccc(-c2cccnc2)nn1CC1CN(c2ncnc3[nH]ccc23)C1`, the “% Inhibition” value was 5% and the Z score was -1.07.
In the case of `Cc1nc(O)nc(C)c1CCC(=O)NC1(c2cc(F)cc(F)c2)CC1`, the “% Inhibition” value was -10% and the Z score was 1.78.
With `C[C@@H](CN1CCCCCC1)NCCN(C)CCO` the “% Inhibition” value was -6% and the Z score was 0.94.
For `Cc1cc(NC2CCN(C)CC2)cc(N2CCN(C(C)C)CC2)c1`, the “% Inhibition” value was 1% and the Z score was -0.21.
In the case of `Cc1cc(NCCNC(=O)Cn2c(C)csc2=O)n(C)n1`, the “% Inhibition” value was -2% and the Z score was 0.5.
In the case of `CCOc1ccnc(N2CCCN(CCCc3nc4ccccc4o3)CC2)n1`, the “% Inhibition” value was 1% and the Z score was -0.22.
With `Cc1ncnc(OCC2CCN(c3ncnc4[nH]ccc34)CC2)c1C` the “% Inhibition” value was -1% and the Z score was 0.19.
For `COc1ccc2occ(C(=O)N3CCC[C@H](c4ccnc(N)n4)C3)c2c1`, the “% Inhibition” value was 3% and the Z score was -0.68.
With `CC[C@]1(O)CCCN(CCn2cnnc2C)C1` the “% Inhibition” value was -2% and the Z score was 0.3.
For `FC(F)(F)c1cccnc1OC[C@H]1CCCN(c2ncnc3cnccc23)C1`, the “% Inhibition” value was -10% and the Z score was 1.55.
`Cc1nc(Nc2ccc(NC(=O)c3c(-c4ccccc4Cl)noc3C)cc2)cc(-n2ccnc2)n1` was tested, and the “% Inhibition” value was 4% and the Z score was -0.56.
In the case of `O=C(CC1CCNCC1F)Nc1ccc(Oc2ccnc3ccccc23)cc1` (stereo unspecified), the “% Inhibition” value was 25% and the Z score was -4.95.
With `O=C(c1onc2c1CCCC2)N1CCN(CCO)C2CS(=O)(=O)CC21` (stereo unspecified) the “% Inhibition” value was -6% and the Z score was 1.27.
`CC(C)(C)OC(=O)NCCN1CCC(Nc2cccc(CO)c2)CC1` was tested, and the “% Inhibition” value was -11% and the Z score was 2.16.
